Sequences with one replicate were seen in a single cluster, so their values are uncertain.
Tested on: ATP
Assay: switch fluorescence ratio, 500 uM ATP over buffer (Cy3 cluster intensity, sum of 5 cycles each) (fold (ratio)); higher = stronger signal-on switching upon ATP binding; sequences stand for … in TCGTCGGCAGCGTCAGATGTGTATAAGAGACAGTTTTTTTTTTTTTTTTTTTTTTTTT…TC
Conditions: aptamer strand: ATP DNA aptamer (quencher-CACCTGGGGGAGTATTGCGGAGGAAGG + anchor), 100 nM annealed; ATP concentration: 500 uM; one replicate
In short: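 Cy3-labelled switching-strand clusters on a modified Illumina MiSeq flow-cell were annealed to 100 nM quencher-labelled ATP aptamer, imaged in selection buffer, then imaged after 15 min with 500 uM ATP at 22 °C. Five buffer/ATP cycles ran, with NaOH stripping and re-annealing between them. The fluorescence ratio is summed target-cycle over summed buffer-cycle Cy3 intensity per cluster, averaged per switch-domain sequence. Clusters outside 100-1000 RFU were excluded.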
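Note: ATP exposure 15 min at 22 °C before imaging.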

Sequence | switch fluorescence ratio
GTGGGACGG | 0.993
TCTGATTGGC | 1.01
GTCACAACAA | 1.03
CCACATCGAC | 1.39
GACCGCGGCA | 1.06
AAATAACTCC | 1.2
TGACATTGTT | 1.01
CCTTCAATTA | 1.17
TTAAAACTTG | 1.07
TTATAGGC | 0.973
GCCATTAACT | 1.01
TATCTGCTCA | 0.966
ACTTAGCCGG | 1.01
GTAAGCGATG | 0.989
CCGAATACTA | 3.37
GACGGATCGC | 1.05
TTAGTGACAC | 1.02
CGGGCTATTT | 1
TAGTTGGACG | 0.974
TAGGTGGTGG | 0.948
AGTATTTTTC | 0.972
GTACTAAATA | 0.991
CAGTTGATTC | 0.981

Sequence | switch fluorescence ratio
GTATCTGTGA | 0.99
TTCAAAGTAA | 1.02
GTTAATCGT | 0.945
ACAGCTGAGG | 0.975
GATAATCAAT | 0.953
GCAAGATGGT | 1.02
TAGACCAGCG | 0.991
AATGCGTACG | 1.01
ACTAAGTTCA | 1
TGGTTAGGAA | 1.03
CCCCCTAACT | 1.08
AACTAGACAT | 1.01
CAGAGGATA | 0.982
AGCTATCTCG | 1.11
AAGCCCGTTG | 0.951
CAATTATATT | 0.969
AGATAGGGGC | 1.01
ATAGGCCCGT | 0.976
GTGTTAGGAG | 1
GCTAGCCAGC | 1.04
ACGGGGTGGC | 1
TGGTCCTGG | 1.03
GCTCGTAGGA | 1.02

Sequence | switch fluorescence ratio
CAACGTCTCC | 1.14
TCAGCGCGTC | 1.38
GAGTGTAGAA | 1.01
GATAGTCAAA | 0.975
GTTTATTTTG | 1.03
CTGTTATTCT | 1.01
ACTTACTATA | 1.14
GGCGGCATGA | 0.971
TGCTTGTATC | 1.02
CAGCAATTGA | 1.53
AGCTGACCGG | 0.88
GAGTAGTACC | 1.08
TCGCTGATTG | 1.01
GTACTAGGCG | 1.05
TGAAGCCTC | 3.36
TCTCAACTCG | 1.04
TACTTCACCG | 1.41
AATGTGTTCG | 1.02
GTTACGCCCT | 1.06
TCGAAGACTG | 0.874
CTCAACGAAC | 1.3
GAACACGCGC | 1.05
GGGATTAGCT | 1

Sequence | switch fluorescence ratio
TGCGTTCGGG | 0.91
AAACTCTACC | 1.17
CGGGTGCCGC | 1.04
ATAAAAGGAG | 0.947
CTTGAGTTAT | 0.979
AGAGAGTAGT | 0.971
CTGATTCTTA | 0.992
AGGGTCGTAT | 0.996
TGGTTTTACT | 0.992
ATCGGCATAG | 1.13
TGGGCGCACG | 1.02
AGCCTGAC | 2.25
TATCTCAGAT | 0.985
TTAGATCGTC | 0.971
AAATTCTTAA | 1.02
AGCTACGAAG | 0.998
TGTTGGCGAT | 1
GTAGGTTGCT | 1.02
AATACTCG | 1.13
TGACTAAGTA | 1.06
CAACACAGTG | 1.04
CTCGCTCGAA | 1.08
GTAAATAGTG | 1.05

Sequence | switch fluorescence ratio
GGGACAGAGT | 0.992
GCTCGCGCGG | 1.07
AGCTGAGTTG | 1.03
ATTAGGAGG | 0.966
TAAGGCGCGG | 1
GGGCCAACTA | 0.984
CCCGTTTGTT | 0.938
AATCCAACGG | 1.18
GTCGTGATGG | 0.98
TCCGCGTATG | 1.27
ACGCCGCCTG | 1.15
TTCAGTCTCC | 1.02
TCAAGCGGAG | 1.05
ACGTGGCCGG | 1.04
AAGGAGCGGA | 1.05
TTTAGCTATA | 1.06
ATTTGACAAC | 0.976
GCATAGGAAT | 0.994
ACATTCAACT | 1.02
GGGATAGTTG | 0.97
CTCTTTGCGG | 0.997
GATTGTGCTA | 1.02
TAGTGAATTA | 0.995

Sequence | switch fluorescence ratio
AATCGTTCAT | 1.01
TTAGGAGAAG | 0.964
TGCTCTGTTG | 0.981
GTTGTGATTA | 1.02
ACCAATGTGT | 0.995
GCACTTTAGA | 1.01
AGCGGATTGA | 1.02
TCAAATGCAT | 0.987
TTCACCTGCG | 1.06
CTCTGCGTGA | 1.6
TCTTTCTCAA | 1.06
ATCCATCAC | 0.992
ATTCGACCAA | 1.14
CACAGGGGA | 1.37
ACGGATGTAA | 0.98
GTACTTTTTT | 1.03
ATATATTGAT | 1.03
CTGCAGA | 0.977
TTGCTAATCT | 1.03
CGGTTGGAAG | 0.987
CAGGTATGG | 0.996
TATGCTTGGA | 0.961
TTCACACGGC | 1.02

Sequence | switch fluorescence ratio
ATCATGTACG | 1.02
CATCCAGAGT | 1.03
AAGTCTTTTT | 0.935
ATAAACTTTA | 0.986
TAAATCATTA | 1.03
CAGAATGAAT | 1.11
TCGGACGATG | 0.935
GATCCCAAT | 1.27
AAGCTTTGGT | 0.98
TTCCGTCGCC | 0.983
CATTGTCAAC | 0.97
CCATAGGGTA | 0.999
TGAATAGTT | 1.01
ATCATTTGGT | 0.983
TAACTATTAT | 1.02
TTTAGCGCAG | 1
CTTTTTACGC | 1.04
AGGTGCAATC | 1.86
TAGGCCAAGA | 1.03

Source: the supplement of paper PMC10126150
